# The whole screen tested about 39,000 compounds, of which about 220 (0.56%) showed activity. The list shows a part of the results.
# Test system: Escherichia coli K-12 BW25113
# Assay: relative growth (OD600 normalised to plate interquartile mean) (fraction); higher = less growth inhibition, active = 0.2 or less
# Details: 50 µM; LB; incubation time: overnight (16-24 h)
# 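Note: static incubation at 37 °C against the wild-type strain, values averaged over two biological replicates.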
row,Structure (SMILES),relative growth
1,CC[C@H]1CN(C)N1C(=O)[C@@H]1CCCO1,inactive: 1.01
2,COc1cccc(C#Cc2ccc3c(c2)O[C@H](CN(C)C(=O)c2ccccn2)[C@@H](C)CN([C@@H](C)CO)S3(=O)=O)c1,inactive: 1.08
3,C[C@@H]1CN([C@@H](C)CO)C(=O)c2cc(NC(=O)CCCN(C)C)ccc2O[C@@H]1CN(C)S(=O)(=O)c1cccs1,inactive: 1
4,COc1ccc(CN(C)C[C@@H]2OCCCC[C@@H](C)Oc3ccc(NS(=O)(=O)c4ccc(Cl)cc4)cc3C(=O)N([C@H](C)CO)C[C@H]2C)cc1,inactive: 1.01
5,C[C@@H]1CN([C@H](C)CO)C(=O)c2cc(NC(=O)C3CC3)ccc2O[C@H]1CN(C)C(=O)Nc1ccc2c(c1)OCO2,inactive: 1.01
6,CC(C)NC(=O)N[C@H]1CC[C@@H](CCN)O[C@H]1CO,inactive: 0.98
7,C[C@H](CO)N1C[C@H](C)[C@@H](CN(C)S(=O)(=O)c2ccc(F)cc2)Oc2ccc(NC(=O)CCCN(C)C)cc2CC1=O,inactive: 1.01
8,C[C@@H]1CN([C@@H](C)CO)C(=O)c2cc(NC(=O)Cn3cnnn3)ccc2O[C@@H]1CN(C)Cc1ccncc1,inactive: 1
9,C[C@H]1CC=CC[C@H](c2ccc3c(c2)OCO3)NC(=O)[C@H](Cc2ccccc2)N(C)C(=O)c2ccccc2O1,inactive: 1.01
10,CC(C)CC#Cc1cnc2c(c1)C(=O)N([C@H](C)CO)C[C@H](C)[C@H](CN(C)C(=O)CCN1CCCCC1)O2,inactive: 1.02
11,C[C@H](CO)N1C[C@H](C)[C@@H](CN(C)C(=O)Nc2ccc(F)cc2)OCCCC[C@H](C)Oc2ccc(NC(=O)C3CCCCC3)cc2C1=O,inactive: 1.01
12,CC(C)N1C[C@@H](C)[C@H](CN(C)Cc2ccc(OCCCC(F)(F)C(F)(F)C(F)(F)C(F)(F)C(F)(F)C(F)(F)C(F)(F)C(F)(F)F)cc2)Oc2c(NC(=O)c3ccncc3)cccc2C1=O,inactive: 1.01
13,C[C@H]1CCCCO[C@H](CN(C)Cc2ccccc2)[C@@H](C)CN([C@@H](C)CO)C(=O)c2cc(NS(=O)(=O)c3ccc(F)cc3)ccc2O1,inactive: 1.01
14,COc1ccc(NC(=O)Nc2ccc3c(c2)C(=O)N([C@@H](C)CO)C[C@H](C)[C@@H](CN(C)S(=O)(=O)c2cn(C)cn2)O3)cc1,inactive: 0.989
15,C[C@@H]1CN([C@@H](C)CO)C(=O)Cc2cc(NS(=O)(=O)c3ccc(Cl)cc3)ccc2O[C@@H]1CN(C)Cc1ccc(C(F)(F)F)cc1,inactive: 1.03
16,CC(=O)NCCCC[C@@H]1NC(=O)[C@@H]2C[C@H](C(=O)NCCCCN(C)C)[C@H](c3cccc(OCCO)c3)N2C1=O,inactive: 0.998
17,O=C(O)c1csc2ccccc12,inactive: 0.988
18,COc1cccc(NC(=O)N[C@@H]2C=C[C@@H](CC(=O)N3CCOCC3)O[C@H]2CO)c1,inactive: 0.9
19,C[C@H]1CN([C@@H](C)CO)C(=O)c2cccc(NC(=O)Nc3ccc(C(F)(F)F)cc3)c2O[C@H]1CN(C)S(=O)(=O)c1ccc(F)cc1,inactive: 0.841
20,C[N+](C)(C)CCCCNC(=O)[C@@H]1C[C@@H]2C(=O)N[C@@H](Cc3ccccc3)C(=O)N2[C@@H]1c1cccc(OCCO)c1,inactive: 0.982

row,Structure (SMILES),relative growth
1,COc1ccc(S(=O)(=O)N(C)C[C@@H]2Oc3ccc(NC(=O)CCCN(C)C)cc3CC(=O)N([C@@H](C)CO)C[C@@H]2C)cc1,inactive: 1.01
2,C[C@H](CO)N1C[C@H](C)[C@@H](CN(C)CC2CCCCC2)OCCCC[C@H](C)Oc2ccc(NC(=O)Nc3ccc(C(F)(F)F)cc3)cc2C1=O,inactive: 1
3,COCCCOc1ccnc(CS(=O)c2nc3ccccc3[n-]2)c1C.[Na+] (centres undefined),inactive: 1.02
4,COc1ccc(NC(=O)Nc2ccc3c(c2)C(=O)N([C@@H](C)CO)C[C@@H](C)[C@H](CN(C)C(=O)Nc2ccc(C(F)(F)F)cc2)O3)cc1,inactive: 1
5,Cc1ccc(S(=O)(=O)N[C@@H](Cc2ccccc2)C(=O)NCCCn2cc(CN3C(=O)COC[C@H]3c3ccccc3)nn2)cc1,inactive: 0.982
6,C[C@@H]1CCCCO[C@H](CN(C)Cc2ccc(Cl)c(Cl)c2)[C@@H](C)CN([C@H](C)CO)C(=O)c2cc(NS(=O)(=O)c3cn(C)cn3)ccc2O1,inactive: 0.993
7,Cc1noc(C)c1NC(=O)Nc1ccc2c(c1)C(=O)N([C@@H](C)CO)C[C@@H](C)[C@@H](CN(C)Cc1ccc(C(F)(F)F)cc1)OCCCC[C@H](C)O2,inactive: 0.99
8,Cc1ccc(S(=O)(=O)Nc2ccc3c(c2)C(=O)N([C@H](C)CO)C[C@@H](C)[C@H](CN(C)Cc2ccncc2)OCCCC[C@H](C)O3)cc1,inactive: 0.98
9,CC(C)(C)c1ccc(CSCc2nc3ccccc3[nH]2)cc1,inactive: 0.898
10,C[C@H]1CN([C@@H](C)CO)C(=O)c2cc(NS(=O)(=O)c3cccs3)ccc2O[C@@H]1CN(C)Cc1ccc(-c2ccccc2)cc1,inactive: 0.969
11,CCS(=O)(=O)NCC[C@@H]1CC[C@@H](NS(=O)(=O)c2ccccc2C)[C@@H](CO)O1,inactive: 0.994
12,CCN(CC)CCOC(=O)C1(C2CCCCC2)CCCCC1.Cl,inactive: 1.14
13,Cc1cc(C)n(-c2nc(=O)cc(C)[nH]2)n1,inactive: 0.913
14,Cc1ccc(S(=O)(=O)Nc2ccc3c(c2)CC(=O)N([C@@H](C)CO)C[C@H](C)[C@H](CN(C)Cc2ccc(Oc4ccccc4)cc2)O3)cc1,inactive: 0.981
15,C[C@@H]1CN([C@@H](C)CO)C(=O)c2cccc(NS(=O)(=O)c3cn(C)cn3)c2O[C@@H]1CN(C)S(=O)(=O)c1cccs1,inactive: 1.01
16,COc1cccc(-c2cnc3c(c2)C(=O)N([C@H](C)CO)C[C@H](C)[C@H](CN(C)S(=O)(=O)c2ccc(C#N)cc2)O3)c1,inactive: 0.986
17,CCCN(C)C[C@@H]1OCCCC[C@@H](C)Oc2ccc(NC(=O)CCC(F)(F)F)cc2C(=O)N([C@@H](C)CO)C[C@@H]1C,inactive: 0.983
18,Cc1noc(C)c1NC(=O)Nc1cccc2c1O[C@H](CN(C)Cc1ccc(C(F)(F)F)cc1)[C@@H](C)CN([C@H](C)CO)C2=O,inactive: 0.965
19,C[C@@H]1CN([C@H](C)CO)C(=O)c2cc(NS(=O)(=O)c3ccc(F)cc3)ccc2O[C@@H]1CN(C)S(C)(=O)=O,inactive: 0.988
20,C[C@@H]1CCCCO[C@H](CN(C)Cc2ccccc2)[C@H](C)CN([C@@H](C)CO)C(=O)c2cc(NC(=O)NC3CCCCC3)ccc2O1,inactive: 0.947

row,Structure (SMILES),relative growth
1,Cc1cccn2c(=O)c3cc(S(=O)(=O)c4ccc(Br)cc4)c(=N)n(CCCN4CCOCC4)c3nc12,inactive: 1.01
2,C[C@H](CO)N1C[C@H](C)[C@@H](CN(C)Cc2ccc(Cl)c(Cl)c2)OCCCC[C@H](C)Oc2ccc(NS(=O)(=O)c3ccccc3)cc2C1=O,inactive: 0.968
3,O=C(C[C@@H]1CC[C@@H]2[C@H](COC[C@H](O)CN2C(=O)C2CC2)O1)NCc1ccncc1,inactive: 1.02
4,C[C@H](CO)N1C[C@H](C)[C@H](CN(C)C(=O)NC2CCCCC2)Oc2ccc(NC(=O)CCN3CCOCC3)cc2C1=O,inactive: 0.998
5,C[C@@H]1CN([C@H](C)CO)C(=O)c2cc(NC(=O)Nc3ccccc3)ccc2O[C@@H](C)CCCCO[C@@H]1CN(C)C(=O)C1CCCCC1,inactive: 0.999
6,C[C@@H]1CCCCO[C@H](CN(C)Cc2ccncc2)[C@@H](C)CN([C@@H](C)CO)C(=O)c2cc(NC(=O)Nc3ccc(F)cc3)ccc2O1,inactive: 1
7,NCCCCCNC(=O)[C@H]1C[C@H]2C(=O)NCC(=O)N2[C@H]1c1cccc(OCCO)c1,inactive: 1.01
8,CC(=O)OCC(=O)O[C@@H]1[C@H]2[C@@H](OC(=O)c3ccccc3)[C@@H](C)C[C@]2(O)[C@H](OC(C)=O)[C@@]2(C)[C@H](OC(C)=O)[C@]1(OC(C)=O)C[C@H]1C(=O)C(C)(C)C[C@@H]12,inactive: 0.999
9,NCC[C@@H]1CC[C@H](NC(=O)Nc2ccc(F)cc2)[C@@H](CO)O1,inactive: 1
10,Cc1noc(C)c1S(=O)(=O)N(C)C[C@H]1OCCCC[C@@H](C)Oc2ccc(NS(=O)(=O)c3cn(C)cn3)cc2C(=O)N([C@@H](C)CO)C[C@@H]1C,inactive: 1.02
11,O=C(C[C@@H]1C=C[C@@H](NS(=O)(=O)c2ccc(F)cc2)[C@H](CO)O1)NCc1ccc(Cl)c(Cl)c1,inactive: 1.01
12,COCCNC(=O)C[C@@H]1C[C@@H]2c3cc(NC(=O)CN(C)C)ccc3O[C@@H]2[C@H](CO)O1,inactive: 1.02
13,COc1ccc(S(=O)(=O)N(C)C[C@H]2OCCCC[C@@H](C)Oc3ccc(NC(=O)CCC(F)(F)F)cc3C(=O)N([C@H](C)CO)C[C@@H]2C)cc1,inactive: 1.05
14,C[C@@H]1CCCCO[C@@H](CN(C)Cc2ccc(C(F)(F)F)cc2)[C@@H](C)CN([C@H](C)CO)C(=O)c2cc(NC(=O)c3ccncc3)ccc2O1,inactive: 0.996
15,COCC#Cc1ccc2c(c1)O[C@@H](CN(C)S(=O)(=O)c1cccc(OC)c1)[C@@H](C)CN([C@H](C)CO)S2(=O)=O,inactive: 1
16,C[C@H](CO)N1C[C@H](C)[C@@H](CN(C)Cc2ccc(Oc3ccccc3)cc2)Oc2ccc(NS(=O)(=O)c3ccc(Cl)cc3)cc2CC1=O,inactive: 0.989
17,C[C@@H]1CCCCO[C@H](CN(C)C(=O)Cc2ccccc2)[C@H](C)CN([C@@H](C)CO)C(=O)c2cc(NC(=O)Nc3ccccc3)ccc2O1,inactive: 1.01
18,Cc1ccc(Oc2ccc(CN)cc2)cc1,inactive: 1.01
19,Cc1noc(C)c1S(=O)(=O)Nc1ccc2c(c1)C(=O)N([C@@H](C)CO)C[C@H](C)[C@@H](CN(C)CC1CCCCC1)OCCCC[C@H](C)O2,inactive: 0.971

# — the supplement of paper PMC9446081
